In the supplement of paper PMC7826260:
The other results are listed elsewhere or left out. One pool of 16,384 single-stranded DNAs met each Rep nickase domain in vitro (1 h at 37 °C, 3 µM enzyme); the outer parts of the 90-letter strands are left off. Values are log2 of uncut reads against the no-enzyme pool; the lower, the more was cut; hits are not called. Shares of all reads are compared, so uncut sequences can rise above 0 when many others are cut.

Test system: T1, Rep nickase domain of tomato golden mosaic virus
T1 sequence (residues 1-124 of Rep, tag left off): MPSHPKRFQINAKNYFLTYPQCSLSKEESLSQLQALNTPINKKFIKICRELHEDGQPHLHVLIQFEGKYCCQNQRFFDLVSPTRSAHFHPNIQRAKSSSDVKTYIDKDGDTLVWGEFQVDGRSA
Test: uncleaved DNA left, log2 of reads against the no-enzyme library (log2 ratio); higher = less cleavage (more negative = more Rep cleavage of the k-mer); sequences stand for … in CTCGTCCG…ACCGGAGA
Procedure: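 A pool of 90-nt single-stranded DNAs with seven random bases just before the constant AC of the nick site (name = the seven bases) was cut by 3 µM recombinant His6-SUMO-tagged Rep nickase domain (300 nM DNA, 50 mM HEPES pH 8.0, 50 mM NaCl, 1 mM MnCl2, 1 h, 37 °C, three replicates). Uncut DNA was amplified and sequenced.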

Sequence | uncleaved DNA left (log2)
TTAACGT | -0.0162
CGTTGGC | -0.209
TCTGCAT | -0.156
AGCGTGT | 0.0637
TTAACAC | 0.0309
TGCAGGG | 0.0581
AGGACCG | 0.0302
ACTATAA | -0.0295
AGTCGCA | -0.0401
ATCGCGA | -0.00115
CCGGTGC | -0.00851
AGCAAGC | -0.0151
TCTTATC | -0.0579
AAGTACT | -0.324
GAGTGTT | -0.612
GGTGAAA | 0.215
TCATCGG | 0.129
CCGTATA | -0.222
TGAGTTT | -0.119
ATCCATG | 0.0545

Sequence | uncleaved DNA left (log2)
GACACAT | -0.15
GACTAAA | 0.0617
CGTTCTA | 0.00649
CTATTTA | 0.00185
GCCAAAC | 0.0401
GCAAGCC | 0.00664
TAGTAGG | 0.199
TCCGAAT | -0.142
TGGTTGC | -0.104
TTACCAT | -0.0911
CGCCTTG | -0.31
TTAAGAC | -0.0418
TGTACCT | -0.0918
GTGAAAG | 0.209
TTTGGCA | -0.0326
AGTTGTC | -0.0258
GGGCACT | 0.0444
ATGTACA | -0.021
TGTCCGG | 0.0536
AGTTATT | -0.794
